From the supplement of paper PMC11417369
The other results are listed elsewhere or left out.

Tested on: PfAP2-HC AP2 domain (GST-tagged)
Assay: gcPBM binding intensity (ln(normalized median fluorescence intensity)); higher = stronger DNA binding
How it was run: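 In this array assay, P. falciparum DNA-binding domains with a GST tag, expressed in E. coli, were applied for 1 h to primer-extended double-stranded 36-bp intergenic genomic probes and negative controls on an Agilent 4 × 180k array. Bound protein was visualised with Alexa488 anti-GST antibody at 488 nm. Binding intensity is the highest Masliner-normalised natural-log median intensity across replicate spots of either probe orientation.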

Sequence | gcPBM binding intensity (ln)
AAAAATATGCTTCCATGTACTTAAAAAAAAAATTTA [XGTACX_site3617] | 9.37
TCAACTTGATTTATATGTACACATATAAGTAATTAT [XGTACX_site1798] | 9.54
TATACAAACTATGATGCACACATATATATATGTATA [CACACA_site8327] | 9.96
AAAAAAAATTTTCTTCTGTTGTATTTTTTATACGTT [GTGCAC_negctrl_site477] | 9.68
TGTTTGAATATAATCACACATTTATATAAAAAGTTA [CACACA_site5237] | 9.29
TCTTTTTGCATGTGTGTGCGCACAAAATACACAAAA [GTGCAC_site9718] | 10
AAATTGAAATATTCCTGTACACATTTTGAAAACTTA [XGTACX_site6101] | 9.47
AAAATATAGTAACACATACACACATATATATTTATA [CACACA_site2504] | 10.2
TTGTTATGTTTTATTTGTACGTAGGTTTCTATCAAA [XGTACX_site7636] | 9.74
TATTAAACTAAATGTAGTACATACACAAAAGAAACC [XGTACX_site606] | 9.97
AAAAAATATAAATATGTAAAAAGAGAAAAAAAAAAG [GTGCAC_negctrl_site9] | 9.8
ATATTTAATTCATCATGTACACAAATAAGAAACAAA [XGTACX_site8076] | 9.67
TATAAACATAAAACCAGTACATATATATTTTTCTTC [XGTACX_site212] | 9.73
TGAAAATGGGAACCGTGTACAGGGCAGTTATAGGGG [XGTACX_site2950] | 9.87
TTATGAAAATATTTTTTTCGTTTGATGTATATGTTT [CACACA_negctrl_site1556] | 9.63
TAAAAAATTAAGCAACGTACAAATGAAAAGTATAAT [XGTACX_site1058] | 9.85
TGATAACCAAAAAGGGGTACATACACAAAAAAATAC [XGTACX_site1254] | 10.1
AACAACATTTGATAAACACACAGAAGTATAAATATA [CACACA_site5327] | 9.89
TACTTATTAGACTATTGTACATACATTATTAATATT [XGTACX_site7849] | 9.83
TATATCATCATGTATGTACACACATACATATATTAT [CACACA_site8387] | 9.98
TACGTATTATAAATATGTACATATAATATGTATATA [XGTACX_site468] | 9.66
ATAAAGAAAAATAGAAGTACATATATGCATGTTAAT [XGTACX_site4480] | 9.86

Sequence | gcPBM binding intensity (ln)
AACAATAAAAATAATTGTACAAGTCTAAAAAAAATT [XGTACX_site20] | 9.79
ATAACAAAATAATAATGTACGTATAAATATAATTTA [XGTACX_site6049] | 9.83
CAAAAACATACCTACACACACAATATGTATATATAA [CACACA_site3514] | 10.2
TAACAATAACTTTATACACACATAATATAAATATAT [CACACA_site7635] | 9.78
TAAAATTTTAACAAAAAAAAAAAAAAAAAAAGAAAA [CACACA_negctrl_site1335] | 9.31
CCAACATGCAGACGCACACACAAAAAAAGCATGCAT [CACACA_site74] | 10.4
AATAATATATATATTACACACTAATTGTATTATATA [CACACA_site448] | 9.71
TAACAATATCTAGATACACACACATATCTCTCAATC [CACACA_site8122] | 10.4
ATTTATTTATTTAGCTGTACATTTATACAGAACGAT [XGTACX_site3336] | 9.51
TTAATACCCGGACACACACACACAAAATAAAATACA [CACACA_site4296] | 10.6
AAAATGAATAAAAATACACACATATATGTTATTCTC [CACACA_site2671] | 9.88
AAATTGAGACAACAGGTGCATATAAATATACAGTGT [GTGCAC_site9634] | 9.79
AATTTTTGTTACAAGATGCACTTAATTTTTCTAAAT | 9.49
AATAAAAATTCAAGTTGTACTTTTTTAAAAATACAA [XGTACX_site3949] | 9.09
TATTCATTAAACCATACACACATAATTTTTTTATAA [CACACA_site4618] | 9.82
ATATATTATATAAAAAGTACTAAAATAGTAAGATGT [XGTACX_site7493] | 10.1
AATGATTTTAAATGAACATAATTTATATTCATAACA [GTGCAC_negctrl_site256] | 9.42
GTGTGCCAAATTAGCACACACATATATACATGAATT [CACACA_site7346] | 10.2
AACGAAGCATAAAATGTTATGTATATATATAAATAT [TGCATGCA_negctrl_site304] | 9.79
TACCAAAAAAAAAAAATAATAATAAAAAAAAAAAAA [TGCATGCA_negctrl_site11] | 9.18
ATCATTTTGTGTTCAAGTACATAATGTTTTACACAA [XGTACX_site3565] | 9.65
CATACATTATAAGATACATGCATATATCTGAACATA [TGCATGCA_site797] | 9.7

Sequence | gcPBM binding intensity (ln)
GCAAAACATTTTTAAAATAAAAATAATAAAATATAT [CACACA_negctrl_site219] | 9.5
ACATTGAACAAAATAGTAAGCACATATATATATATA [GTGCAC_negctrl_site679] | 9.62
ACGTATCAATTTATTGGTACACATAAATATATATAT [XGTACX_site5556] | 9.63
TGATTCATTGATAAGGGTACATTTATAATTATGATA [XGTACX_site6319] | 9.33
ACACATAATATAAAGGTGCTATATTGTATTCATTTT [GTGCAC_site9457] | 9.8
TTTTCATACACTGCTAGTATATACTACCACTGACAT [GTGCAC_negctrl_site514] | 9.8
AAACATATATTAAGCACACACAAACAAAAAAACAAA [CACACA_site2549] | 10.9
TGCAAAAAAAAAAAAAAAAAATATATGGAAATATAT [GTGCAC_negctrl_site257] | 9.37
CAATAATATATATATTGTACATTTTTTTTTATTATT [XGTACX_site3149] | 9.66
AAAGATTCTTTGAATTGTACAAATATATTTACTCAC [XGTACX_site8772] | 9.59
ATGTTCCATTTTACTTGTACTAATTTTTTCCTATCT [XGTACX_site6474] | 9.78
TATATTATTTTCTTTTGTACACATATATATCAGTGT [XGTACX_site664] | 9.9
ATGATAATTTTTTTCTCACACACAAATATTTTAATC [CACACA_site3665] | 9.92
TTTTTATTGCAATACTTATATTTTTTTATGATTAAA [TGCATGCA_negctrl_site147] | 9.77
ATAATAATAAAGTATGCATGCATATAATATAATATA [TGCATGCA_site796] | 10
AAATCACATAAAACATAATCAAATGAAATATAATCA [CACACA_negctrl_site123] | 9.67
TAAATATTATTATATACATGCACTTACAACTTTTTT [TGCATGCA_site877] | 9.83
ACTGTAAATTTATTCGGTACACATATAAATAATATT [XGTACX_site7346] | 9.64
TTAATGGCAAAATAGGCACACACACCGATACATATA [CACACA_site8263] | 10.3
ACAGTAGCCAGTAACTGTACGGATTGTAGAGATCAG [XGTACX_site4873] | 9.74
ATAATATTTAGGTGTGCACACAAACATACATATATA [CACACA_site9120] | 10.2
ATTATTTTTAAAAATTGTACAGTATAAGAGAGAAAT [XGTACX_site7094] | 9.64

Sequence | gcPBM binding intensity (ln)
TATTGTAAAAAGATTACACACGTTCTATATACTTTT [CACACA_site5379] | 9.82
AATAAAAAAATATATTGTACTAATAATTATATGTTT [XGTACX_site2246] | 9.58
ATGGTTAAAAAAAGCATACACACTATCCTCTTTGCT [CACACA_site2552] | 9.87
TTTGTTGACGGACACACACACATACAGATATATATA [CACACA_site5292] | 10.1
ATAATAAATTATTATGTACACACATAATAGTATATA [CACACA_site8538] | 9.95
TAGATACATAAAAGTGGTACATATATATATATATAT [XGTACX_site6263] | 9.85
AATATTTATATTTACACACACATAATACCTATATGT [CACACA_site6167] | 10.2
TGGAAATTCTCAGGAGTGCATATTTGCAGTTTACGT [GTGCAC_site9768] | 9.7
ATATTTTTTTTTTTTTGTACATATATCATTATATAT [XGTACX_site866] | 9.85
TTTTTGTCTGCATACGCACACACGTGTACCATCTTA [CACACA_site1173] | 10.8
TGGTTACTGTCATTAGTTATTTCTTGTTGACAATTA [CACACA_negctrl_site416] | 9.66
CCGTTGAACATATATGCACACACATAAAATAAAAAA [CACACA_site8761] | 10
TATTTTTCCATATGCACACACACCGTATCTAGAATA [CACACA_site6654] | 10.3
TACATAAACATTTATACACACATTATGTATACATAT [CACACA_site405] | 9.96
GGATTTTTCGAATCATGTACATATTTAATTAAAAAA [XGTACX_site7939] | 9.35
TAGAATGTATGTAGTGCACACCTCTATAATATATTA [CACACA_site1873] | 9.72
AACTTTGGCAAACACACACACACACCCACACCCACA [CACACA_site588] | 10.5
TTCTCACTTTTAAATTTTATTCAAAAATAAGGAAAG [XGTACX_negctrl_site444] | 9.23
GAGAGTAAAACAAATATACACACCATAAAGTTATAA [CACACA_site1686] | 9.85
ATATATATATATAAATGTACATATGTATAATTCATA [XGTACX_site6679] | 9.91
ATTTCGTTCTTTTATGCACACTCAACATATAAATTA [CACACA_site8322] | 9.93
TTATATATTTTGATTGCACACAGAATTTAAATCATG [CACACA_site8735] | 9.79
